# Measurements as given in the supplement of paper PMC8728848.
# The list shows a part of the results.
# Experiments:
# Test in all cases: glycan array binding signal (z-score within array); higher = stronger binding
# Details in all cases: glycan notation: IUPAC condensed, linker removed
# [1] = molecular target: Fuc(a1-2)Gal6S(b1-3)GlcNAc
# Summary of the method: (§1)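 Negative Z-scores can be read as non-binding. The Z-score is calculated within each array and then averaged across arrays of one protein sequence at different concentrations or buffers and across linkers. Arrays, 3228 in all, were curated from the Consortium for Functional Glycomics database and kept only where the protein sequence was available.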
# [2] = molecular target: Fuc(a1-2)Gal6S(b1-3)GlcNAc6S
# Summary of the method: as §1
# Fuc(a1-2)Gal6S(b1-4)Glc = molecular target: Fuc(a1-2)Gal6S(b1-4)Glc
# Summary of the method: as §1
# [3] = molecular target: Fuc(a1-2)Gal6S(b1-4)Glc6S
# Summary of the method: as §1
# Fuc(a1-2)GlcNAc = molecular target: Fuc(a1-2)GlcNAc
# Summary of the method: as §1
# Fuc(a1-2)[Gal(a1-3)]Gal = molecular target: Fuc(a1-2)[Gal(a1-3)]Gal
# Summary of the method: as §1
# [4] = molecular target: Fuc(a1-2)[Gal(a1-3)]Gal(b1-3)GalNAc
# Summary of the method: as §1
# [5] = molecular target: Fuc(a1-2)[Gal(a1-3)]Gal(b1-3)GalNAc(b1-3)Gal(a1-4)Gal(b1-4)Glc
# Summary of the method: as §1
# [6] = molecular target: Fuc(a1-2)[Gal(a1-3)]Gal(b1-3)GlcNAc
# Summary of the method: as §1
# [7] = molecular target: Fuc(a1-2)[Gal(a1-3)]Gal(b1-3)GlcNAc(b1-2)Man(a1-3)[Fuc(a1-2)[Gal(a1-3)]Gal(b1-3)GlcNAc(b1-2)Man(a1-6)]Man(b1-4)GlcNAc(b1-4)GlcNAc
# Summary of the method: as §1
# [8] = molecular target: Fuc(a1-2)[Gal(a1-3)]Gal(b1-3)GlcNAc(b1-2)Man(a1-3)[Fuc(a1-2)[Gal(a1-3)]Gal(b1-3)GlcNAc(b1-2)Man(a1-6)]Man(b1-4)GlcNAc(b1-4)[Fuc(a1-6)]GlcNAc
# Summary of the method: as §1
# [9] = molecular target: Fuc(a1-2)[Gal(a1-3)]Gal(b1-3)GlcNAc(b1-3)GalNAc
# Summary of the method: as §1
# [10] = molecular target: Fuc(a1-2)[Gal(a1-3)]Gal(b1-3)GlcNAc(b1-6)GalNAc
# Summary of the method: as §1
# [11] = molecular target: Fuc(a1-2)[Gal(a1-3)]Gal(b1-4)Glc
# Summary of the method: as §1
# [12] = molecular target: Fuc(a1-2)[Gal(a1-3)]Gal(b1-4)GlcNAc
# Summary of the method: as §1
# [13] = molecular target: Fuc(a1-2)[Gal(a1-3)]Gal(b1-4)GlcNAc(b1-2)Man
# Summary of the method: as §1
# [14] = molecular target: Fuc(a1-2)[Gal(a1-3)]Gal(b1-4)GlcNAc(b1-2)Man(a1-3)[Fuc(a1-2)[Gal(a1-3)]Gal(b1-4)GlcNAc(b1-2)Man(a1-6)]Man(b1-4)GlcNAc(b1-4)GlcNAc
# Summary of the method: as §1
# [15] = molecular target: Fuc(a1-2)[Gal(a1-3)]Gal(b1-4)GlcNAc(b1-2)Man(a1-3)[Fuc(a1-2)[Gal(a1-3)]Gal(b1-4)GlcNAc(b1-2)Man(a1-6)]Man(b1-4)GlcNAc(b1-4)[Fuc(a1-6)]GlcNAc
# Summary of the method: as §1
# [16] = molecular target: Fuc(a1-2)[Gal(a1-3)]Gal(b1-4)GlcNAc(b1-3)GalNAc
# Summary of the method: as §1
# [17] = molecular target: Fuc(a1-2)[Gal(a1-3)]Gal(b1-4)GlcNAc(b1-3)[Fuc(a1-2)[Gal(a1-3)]Gal(b1-4)GlcNAc(b1-6)]GalNAc
# Summary of the method: as §1
# [18] = molecular target: Fuc(a1-2)[Gal(a1-3)]Gal(b1-4)GlcNAc(b1-6)GalNAc
# Summary of the method: as §1
# [19] = molecular target: Fuc(a1-2)[Gal(a1-3)]Gal(b1-4)[Fuc(a1-3)]Glc
# Summary of the method: as §1
# [20] = molecular target: Fuc(a1-2)[Gal(a1-3)]Gal(b1-4)[Fuc(a1-3)]GlcNAc
# Summary of the method: as §1
# [21] = molecular target: Fuc(a1-2)[Gal(a1-3)]Gal(b1-4)[Fuc(a1-3)]GlcNAc(b1-3)GalNAc
# Summary of the method: as §1
# [22] = molecular target: Fuc(a1-2)[Gal(a1-4)]Gal(b1-4)GlcNAc
# Summary of the method: as §1
# [23] = molecular target: Fuc(a1-2)[GalNAc(a1-3)]Gal
# Summary of the method: as §1
# [24] = molecular target: Fuc(a1-2)[GalNAc(a1-3)]Gal(b1-3)GalNAc(a1-3)[Fuc(a1-2)]Gal(b1-4)GlcNAc
# Summary of the method: as §1
# [25] = molecular target: Fuc(a1-2)[GalNAc(a1-3)]Gal(b1-3)GalNAc(b1-3)Gal(a1-4)Gal(b1-4)Glc
# Summary of the method: as §1
# [26] = molecular target: Fuc(a1-2)[GalNAc(a1-3)]Gal(b1-3)GlcNAc
# Summary of the method: as §1
# [27] = molecular target: Fuc(a1-2)[GalNAc(a1-3)]Gal(b1-3)GlcNAc(b1-2)Man(a1-3)[Fuc(a1-2)[GalNAc(a1-3)]Gal(b1-3)GlcNAc(b1-2)Man(a1-6)]Man(b1-4)GlcNAc(b1-4)GlcNAc
# Summary of the method: as §1
# [28] = molecular target: Fuc(a1-2)[GalNAc(a1-3)]Gal(b1-3)GlcNAc(b1-2)Man(a1-3)[Fuc(a1-2)[GalNAc(a1-3)]Gal(b1-3)GlcNAc(b1-2)Man(a1-6)]Man(b1-4)GlcNAc(b1-4)[Fuc(a1-6)]GlcNAc
# Summary of the method: as §1
# [29] = molecular target: Fuc(a1-2)[GalNAc(a1-3)]Gal(b1-3)GlcNAc(b1-3)GalNAc
# Summary of the method: as §1
# [30] = molecular target: Fuc(a1-2)[GalNAc(a1-3)]Gal(b1-3)GlcNAc(b1-6)GalNAc
# Summary of the method: as §1
# [31] = molecular target: Fuc(a1-2)[GalNAc(a1-3)]Gal(b1-4)Glc
# Summary of the method: as §1
# [32] = molecular target: Fuc(a1-2)[GalNAc(a1-3)]Gal(b1-4)GlcNAc
# Summary of the method: as §1
# [33] = molecular target: Fuc(a1-2)[GalNAc(a1-3)]Gal(b1-4)GlcNAc(b1-2)Man
# Summary of the method: as §1
# [34] = molecular target: Fuc(a1-2)[GalNAc(a1-3)]Gal(b1-4)GlcNAc(b1-2)Man(a1-3)[Fuc(a1-2)[GalNAc(a1-3)]Gal(b1-4)GlcNAc(b1-2)Man(a1-6)]Man(b1-4)GlcNAc(b1-4)GlcNAc
# Summary of the method: as §1
# [35] = molecular target: Fuc(a1-2)[GalNAc(a1-3)]Gal(b1-4)GlcNAc(b1-2)Man(a1-3)[Fuc(a1-2)[GalNAc(a1-3)]Gal(b1-4)GlcNAc(b1-2)Man(a1-6)]Man(b1-4)GlcNAc(b1-4)[Fuc(a1-6)]GlcNAc
# Summary of the method: as §1
# [36] = molecular target: Fuc(a1-2)[GalNAc(a1-3)]Gal(b1-4)GlcNAc(b1-3)Gal(b1-4)GlcNAc
# Summary of the method: as §1
# [37] = molecular target: Fuc(a1-2)[GalNAc(a1-3)]Gal(b1-4)GlcNAc(b1-3)Gal(b1-4)GlcNAc(b1-3)Gal(b1-4)GlcNAc
# Summary of the method: as §1
# [38] = molecular target: Fuc(a1-2)[GalNAc(a1-3)]Gal(b1-4)GlcNAc(b1-3)GalNAc
# Summary of the method: as §1
# [39] = molecular target: Fuc(a1-2)[GalNAc(a1-3)]Gal(b1-4)GlcNAc(b1-3)[Fuc(a1-2)[GalNAc(a1-3)]Gal(b1-4)GlcNAc(b1-6)]GalNAc
# Summary of the method: as §1
# [40] = molecular target: Fuc(a1-2)[GalNAc(a1-3)]Gal(b1-4)GlcNAc(b1-6)GalNAc
# Summary of the method: as §1
# [41] = molecular target: Fuc(a1-2)[GalNAc(a1-3)]Gal(b1-4)[Fuc(a1-3)]GlcNAc
# Summary of the method: as §1
# [42] = molecular target: Fuc(a1-2)[GalNAc(a1-3)]Gal(b1-4)[Fuc(a1-3)]GlcNAc(b1-3)GalNAc
# Summary of the method: as §1
binder,measurement,setting,value
WGA (Triticum vulgare) (protein) QRCGEQGSNMECPNNLCCSQYGYCGMGGDYCGKGCQNGACWTSKRCGSQAGGATCPNNHCCSQYGHCGFGAEYCGAGCQGGPCRADIKCGSQSGGKLCPNNLCCSQWGFCGLGSEFCGGGCQSGACSTDKPCGKDAGGRVCTNNYCCSKWGSCGIGPGYCGAGCQSGGCDAVFAGAITANSTLLAE,glycan array binding signal (z-score),[1],-0.341
same,glycan array binding signal (z-score),[2],-0.355
same,glycan array binding signal (z-score),Fuc(a1-2)Gal6S(b1-4)Glc,-0.35
same,glycan array binding signal (z-score),[3],-0.336
same,glycan array binding signal (z-score),Fuc(a1-2)GlcNAc,-0.719
same,glycan array binding signal (z-score),Fuc(a1-2)[Gal(a1-3)]Gal,-0.356
same,glycan array binding signal (z-score),[4],-0.353
same,glycan array binding signal (z-score),[5],-0.364
same,glycan array binding signal (z-score),[6],-0.284
same,glycan array binding signal (z-score),[7],-0.323
same,glycan array binding signal (z-score),[8],-0.294
same,glycan array binding signal (z-score),[9],-0.331
same,glycan array binding signal (z-score),[10],-0.324
same,glycan array binding signal (z-score),[11],-0.359
same,glycan array binding signal (z-score),[12],0.426
same,glycan array binding signal (z-score),[13],-0.357
same,glycan array binding signal (z-score),[14],-0.161
same,glycan array binding signal (z-score),[15],-0.292
same,glycan array binding signal (z-score),[16],-0.339
same,glycan array binding signal (z-score),[17],-0.314
same,glycan array binding signal (z-score),[18],-0.326
same,glycan array binding signal (z-score),[19],-0.309
same,glycan array binding signal (z-score),[20],-0.304
same,glycan array binding signal (z-score),[21],-0.277
same,glycan array binding signal (z-score),[22],0.509
same,glycan array binding signal (z-score),[23],-0.082
same,glycan array binding signal (z-score),[24],0.738
same,glycan array binding signal (z-score),[25],-0.368
same,glycan array binding signal (z-score),[26],-0.387
same,glycan array binding signal (z-score),[27],-0.181
same,glycan array binding signal (z-score),[28],-0.309
same,glycan array binding signal (z-score),[29],-0.299
same,glycan array binding signal (z-score),[30],-0.365
same,glycan array binding signal (z-score),[31],-0.357
same,glycan array binding signal (z-score),[32],1.1
same,glycan array binding signal (z-score),[33],-0.347
same,glycan array binding signal (z-score),[34],0.266
same,glycan array binding signal (z-score),[35],-0.283
same,glycan array binding signal (z-score),[36],1.17
same,glycan array binding signal (z-score),[37],0.902
same,glycan array binding signal (z-score),[38],-0.339
same,glycan array binding signal (z-score),[39],-0.231
same,glycan array binding signal (z-score),[40],0.594
same,glycan array binding signal (z-score),[41],-0.26
same,glycan array binding signal (z-score),[42],-0.241
